Test results published in patent publication US20050004163A1, “3-(diarylmethylene)-8-azabicyclo[3.2.1]octane derivatives” (priority 2000, published 2005).

Biological target: T1, δ-opioid receptor (Rattus norvegicus, UniProt P33533)
T1 construct: the forebrains are homogenized in Tris buffer in a Teflon®-glass homogenizer; from tissue; host or cells: forebrain of male Wistar rats (particulate membrane preparation)
Settings: rat brain δ opioid receptor binding, 10 nM solutions of the compounds

T1 sequence (P33533 whole entry): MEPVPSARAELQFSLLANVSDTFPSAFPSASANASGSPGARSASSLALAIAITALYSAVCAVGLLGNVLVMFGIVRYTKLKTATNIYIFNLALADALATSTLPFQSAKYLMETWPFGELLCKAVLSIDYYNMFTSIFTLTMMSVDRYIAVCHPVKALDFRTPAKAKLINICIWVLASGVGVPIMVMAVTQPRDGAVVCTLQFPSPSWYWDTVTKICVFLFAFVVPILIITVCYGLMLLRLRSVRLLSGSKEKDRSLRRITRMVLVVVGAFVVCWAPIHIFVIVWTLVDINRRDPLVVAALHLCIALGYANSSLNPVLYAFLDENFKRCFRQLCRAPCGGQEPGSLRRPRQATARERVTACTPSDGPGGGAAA

SMILES: CCNC(=O)c1ccc(C(=C2CC3CCC(C2)N3CC=C(C)C)c2cccc3cccnc23)cc1 [Cpd 67]
- Ki (DOR binding Ki): 77.2 nM

SMILES: CCNC(=O)c1ccc(C(=C2CC3CCC(C2)N3Cc2cccs2)c2cccc3cccnc23)cc1 [Cpd 68]
- Ki (DOR binding Ki): 34.4 nM

SMILES: CCNC(=O)c1ccc(C(=C2CC3CCC(C2)N3Cc2ccc3c(c2)OCO3)c2cccc3cccnc23)cc1 [Cpd 69]
- Ki (DOR binding Ki): 77.5 nM

SMILES: CCNC(=O)c1ccc(C(=C2CC3CCC(C2)N3Cc2ccccn2)c2cccc3cccnc23)cc1 [Cpd 70]
- Ki (DOR binding Ki): 22.3 nM

SMILES: CCNC(=O)c1ccc(C(=C2CC3CCC(C2)N3Cc2ccc3ccccc3n2)c2cccnc2)cc1 [Cpd 71]
- Ki (DOR binding Ki): 5.14 nM

SMILES: CCNC(=O)c1ccc(C(=C2CC3CCC(C2)N3Cc2ccc3ccccc3n2)c2cccc(NC(C)=O)c2)cc1 [Cpd 72]
- Ki (DOR binding Ki): 6.83 nM

SMILES: CCNC(=O)c1ccc(C(=C2CC3CCC(C2)N3Cc2ccc3ccccc3n2)c2cccc(C(C)=O)c2)cc1 [Cpd 73]
- Ki (DOR binding Ki): 6.54 nM

SMILES: CCNC(=O)c1ccc(C(=C2CC3CCC(C2)N3Cc2csc([N+](=O)[O-])c2)c2cccnc2)cc1 [Cpd 74]
- Ki (DOR binding Ki): 10.6 nM

SMILES: CCNC(=O)c1ccc(C(=C2CC3CCC(C2)N3Cc2csc([N+](=O)[O-])c2)c2cccc(C(C)=O)c2)cc1 [Cpd 76]
- Ki (DOR binding Ki): 35.3 nM

SMILES: CCNC(=O)c1ccc(C=C2CC3CCC(C2)N3Cc2ccc(Cl)s2)cc1 [Cpd 77]
- Ki (read-out: DOR binding Ki): 2050 nM

SMILES: CCNC(=O)c1ccc(C=C2CC3CCC(C2)N3Cc2sc3ccccc3c2C)cc1 [Cpd 78]
- Ki (read-out: DOR binding Ki): 5600 nM

SMILES: CCNC(=O)c1ccc(C(=C2CC3CCC(C2)N3Cc2ccco2)c2cccc(C(=O)O)c2)cc1 [Cpd 80, 3-[(4-Ethylcarbamoyl-phenyl)-(8-furan-2-ylmethyl-8-aza-bicyclo[3.2.1]oct-3-ylidene)-methyl]-benzoic acid]
- Ki (DOR binding Ki): 4.06 nM

SMILES: CCNC(=O)c1ccc(C(=C2CC3CCC(C2)N3Cc2ccoc2)c2cccc(C(=O)O)c2)cc1 [Cpd 81]
- Ki (DOR binding Ki): 3.5 nM

SMILES: CCNC(=O)c1ccc(C(=C2CC3CCC(C2)N3Cc2ccccn2)c2cccc(C(=O)O)c2)cc1 [Cpd 82]
- Ki (DOR binding Ki): 4.36 nM

SMILES: CCNC(=O)c1ccc(C(=C2CC3CCC(C2)N3CCc2ccccc2)c2cccc(C(=O)O)c2)cc1 [Cpd 83]
- Ki (DOR binding Ki): 625 nM

SMILES: CCNC(=O)c1ccc(C(=C2CC3CCC(C2)N3Cc2ccc(NC(C)=O)cc2)c2cccc(C(=O)O)c2)cc1 [Cpd 84]
- Ki (DOR binding Ki): 325 nM

SMILES: CCNC(=O)c1ccc(C(=C2CC3CCC(C2)N3Cc2ccc3ccccc3n2)c2cccc(C(=O)O)c2)cc1 [Cpd 85]
- Ki (DOR binding Ki): 2.47 nM

SMILES: CCNC(=O)c1ccc(C=C2CC3CCC(C2)N3CCc2ccccc2O)cc1 [Cpd 86]
- Ki (read-out: DOR binding Ki): 504 nM

SMILES: CCNC(=O)c1ccc(C(=C2CC3CCC(C2)N3Cc2ccc(C(=O)O)o2)c2cccc(C(=O)O)c2)cc1 [Cpd 87]
- Ki (read-out: DOR binding Ki): 254 nM

SMILES: CCNC(=O)c1ccc(C(=C2CC3CCC(C2)N3CC(=O)c2cc(C(=O)c3ccc(Cl)cc3)cn2C)c2ccccc2)cc1 [Cpd 88, 4-[(8{2-[4-(4-Chloro-benzoyl)-1-methyl-1H-pyrrol-2-yl]-2-oxo-ethyl}-8-azabicyclo[3.2.1]oct-3-ylidene)-phenyl-methyl]-N-ethyl-benzamide]
- Ki (DOR binding Ki): 36.4 nM

SMILES: CCN(CC)C(=O)c1ccc(C(Br)=C2CC3CCC(C2)N3CCc2ccccc2)cc1 [Cpd 89, 4-[Bromo-(8-phenethyl-8-azabicyclo[3.2.1]oct-3-ylidene)-methyl]-N,N-diethylbenzamide]
- Ki (DOR binding Ki): 311 nM

SMILES: CCNC(=O)c1ccc(C(=C2CC3CCC(C2)N3Cc2nnn[nH]2)c2ccccc2)cc1 [Cpd 90, N-Ethyl-4-{phenyl-[8-(1H-tetrazol-5-ylmethyl)-8-aza-bicyclo[3.2.1]oct-3-ylidene]-methyl}-benzamide]
- Ki (DOR binding Ki): 102 nM

SMILES: CCNC(=O)c1ccc(C(=C2CC3CCC(C2)N3CCN2CCN(C(=O)OC)CC2)c2ccccc2)cc1 [Cpd 91, 4-(2-{3-[(4-Ethylcarbamoylphenyl)-phenylmethylene]-8-azabicyclo[3.2.1]oct-8-yl}-ethyl)piperazine-1-carboxylic acid methyl ester]
- Ki (DOR binding Ki): 212 nM

SMILES: CCNC(=O)c1ccc(C(=C2CC3CCC(C2)N3Cc2cccc(C(=O)O)c2)c2ccccc2)cc1 [Cpd 93]
- Ki (DOR binding Ki): 480 nM

SMILES: CCNC(=O)c1ccc(C(=C2CC3CCC(C2)N3Cc2ccc(C(=O)O)cc2)c2ccccc2)cc1 [Cpd 94]
- Ki (DOR binding Ki): 480 nM

SMILES: CCNC(=O)c1ccc(C(=C2CC3CCC(C2)N3Cc2ccc(C(=O)O)o2)c2ccccc2)cc1 [Cpd 95]
- Ki (read-out: DOR binding Ki): 144 nM

SMILES: CCNC(=O)c1ccc(C(=C2CC3CCC(C2)N3Cc2ccco2)c2ccc(C(=O)O)cc2)cc1 [Cpd 96]
- Ki (read-out: DOR binding Ki): 6.62 nM

SMILES: CCNC(=O)c1ccc(C(=C2CC3CCC(C2)N3Cc2ccoc2)c2ccc(C(=O)O)cc2)cc1 [Cpd 97]
- Ki (DOR binding Ki): 5.33 nM

SMILES: CCNC(=O)c1ccc(C(=C2CC3CCC(C2)N3Cc2ccccn2)c2ccc(C(=O)O)cc2)cc1 [Cpd 98]
- Ki (DOR binding Ki): 6 nM

SMILES: CCNC(=O)c1ccc(C(=C2CC3CCC(C2)N3CCc2ccccc2)c2ccc(C(=O)O)cc2)cc1 [Cpd 99]
- Ki (DOR binding Ki): 4.82 nM

SMILES: CCNC(=O)c1ccc(C(=C2CC3CCC(C2)N3Cc2ccc3ccccc3n2)c2ccc(C(=O)O)cc2)cc1 [Cpd 100]
- Ki (DOR binding Ki): 3.65 nM

SMILES: CCNC(=O)c1ccc(C(=C2CC3CCC(C2)N3Cc2ccc3ccccc3n2)c2cncnc2)cc1 [Cpd 101]
- Ki (DOR binding Ki): 13.6 nM

SMILES: CCNC(=O)c1ccc(C(=C2CC3CCC(C2)N3Cc2nccs2)c2cccc(C(=O)O)c2)cc1 [Cpd 102]
- Ki (DOR binding Ki): 5.65 nM

SMILES: CNC(=O)c1ccc(C=C2CC3CCC(C2)N3)cc1 [Cpd 103, 4-(8-Aza-bicyclo[3.2.1]oct-3-ylidenemethyl)-N-methyl-benzamide]
- Ki (DOR binding Ki): 5850 nM

SMILES: CNC(=O)c1ccc(C=C2CC3CCC(C2)N3CC2CC2)cc1 [Cpd 105]
- Ki (DOR binding Ki): 4520 nM

SMILES: CCNC(=O)c1ccc(C=C2CC3CCC(C2)N3CCC(C#N)(c2ccccc2)c2ccccc2)cc1 [Cpd 106, 4-[8-(3-Cyano-3,3-diphenylpropyl)-8-aza-bicyclo[3.2.1]oct-3-ylidenemethyl]-N-ethyl-benzamide]
- Ki (DOR binding Ki): 6560 nM

SMILES: CCNC(=O)c1ccc(C=C2CC3CCC(C2)N3CCC(C(=O)N(C)C)(c2ccccc2)c2ccccc2)cc1 [Cpd 107, 4-[8-(3-Dimethylcarbamoyl-3,3-diphenyl-propyl)-8-aza-bicyclo[3.2.1]oct-3-ylidenemethyl]-N-ethyl-benzamide]
- Ki (DOR binding Ki): 1570 nM

SMILES: CCNC(=O)c1ccc(C(=C2CC3CCC(C2)N3Cc2ccco2)c2cc(N)cc(C(=O)O)c2)cc1 [Cpd 108]
- Ki (DOR binding Ki): 105 nM

SMILES: CCNC(=O)c1ccc(C(=C2CC3CCC(C2)N3Cc2ccoc2)c2cc(N)cc(C(=O)O)c2)cc1 [Cpd 110]
- Ki (DOR binding Ki): 56.3 nM

SMILES: CCNC(=O)c1ccc(C(=C2CC3CCC(C2)N3Cc2ccccn2)c2cc(N)cc(C(=O)O)c2)cc1 [Cpd 112]
- Ki (DOR binding Ki): 1440 nM

SMILES: CCNC(=O)c1ccc(/C(=C2\C[C@H]3CC[C@@H](C2)N3Cc2ccccn2)c2ccc(C(=O)N(C)C)cc2)cc1 [Cpd 113, N-Ethyl-4-[N′,N′-dimethylbenzamide-(8-pyridin-2-ylmethyl-8-aza-bicyclo[3.2.1]oct-3-ylidene)-methyl]-benzamide]
- Ki (DOR binding Ki): 1.33 nM

SMILES: CCNC(=O)c1ccc(C(=C2CC3CCC(C2)N3CC=C(C)C)c2cc(N)cc(C(=O)O)c2)cc1 [Cpd 114]
- Ki (DOR binding Ki): 56.4 nM

SMILES: CCNC(=O)c1ccc(C(=C2CC3CCC(C2)N3CCc2ccccc2)c2cc(N)cc(C(=O)O)c2)cc1 [Cpd 116]
- Ki (DOR binding Ki): 50.6 nM

SMILES: CCNC(=O)c1ccc(C(=C2CC3CCC(C2)N3Cc2nccs2)c2cc(N)cc(C(=O)O)c2)cc1 [Cpd 118]
- Ki (DOR binding Ki): 57.4 nM

SMILES: CCNC(=O)c1ccc(C(=C2CC3CCC(C2)N3Cc2cccs2)c2cc(N)cc(C(=O)O)c2)cc1 [Cpd 120]
- Ki (DOR binding Ki): 2.2 nM

SMILES: CCNC(=O)c1ccc(C(=C2CC3CCC(C2)N3Cc2ccco2)c2ccc([N+](=O)[O-])cc2)cc1 [Cpd 123]
- Ki (read-out: DOR binding Ki): 0.64 nM

SMILES: CCNC(=O)c1ccc(C(=C2CC3CCC(C2)N3Cc2ccco2)c2ccc(CC(N)C(=O)O)cc2)cc1 (stereo not drawn) [Cpd 124]
- Ki (DOR binding Ki): 9.29 nM

SMILES: CCNC(=O)c1ccc(C(=C2CC3CCC(C2)N3Cc2ccco2)c2ccc(CCC(=O)O)cc2)cc1 [Cpd 125]
- Ki (DOR binding Ki): 1.44 nM

SMILES: CCNC(=O)c1ccc(C(=C2CC3CCC(C2)N3Cc2ccoc2)c2ccc([N+](=O)[O-])cc2)cc1 [Cpd 126]
- Ki (read-out: DOR binding Ki): 0.23 nM

SMILES: CCNC(=O)c1ccc(C(=C2CC3CCC(C2)N3Cc2ccoc2)c2ccc(CCC(=O)O)cc2)cc1 [Cpd 127]
- Ki (DOR binding Ki): 0.78 nM

SMILES: CCNC(=O)c1ccc(C(=C2CC3CCC(C2)N3Cc2ccsc2)c2ccc([N+](=O)[O-])cc2)cc1 [Cpd 128]
- Ki (DOR binding Ki): 0.28 nM

SMILES: CCNC(=O)c1ccc(C(=C2CC3CCC(C2)N3Cc2ccsc2)c2ccc(CCC(=O)O)cc2)cc1 [Cpd 129]
- Ki (DOR binding Ki): 0.34 nM

SMILES: CCNC(=O)c1ccc(C(=C2CC3CCC(C2)N3Cc2nccs2)c2ccc([N+](=O)[O-])cc2)cc1 [Cpd 130]
- Ki (DOR binding Ki): 11.3 nM

SMILES: CCNC(=O)c1ccc(C(=C2CC3CCC(C2)N3Cc2nccs2)c2ccc(CC(N)C(=O)O)cc2)cc1 (stereo not drawn) [Cpd 131]
- Ki (DOR binding Ki): 11.2 nM

SMILES: CCNC(=O)c1ccc(C(=C2CC3CCC(C2)N3Cc2nccs2)c2ccc(CCC(=O)O)cc2)cc1 [Cpd 132]
- Ki (DOR binding Ki): 0.93 nM

SMILES: CCNC(=O)c1ccc(C=C2CC3CCC(C2)N3Cc2nccs2)cc1 [Cpd 133]
- Ki (DOR binding Ki): 142 nM

SMILES: CCNC(=O)c1ccc(C(=C2CC3CCC(C2)N3CCc2ccccc2)c2ccc([N+](=O)[O-])cc2)cc1 [Cpd 134]
- Ki (DOR binding Ki): 10.5 nM

SMILES: CCNC(=O)c1ccc(C(=C2CC3CCC(C2)N3CCc2ccccc2)c2ccc(CCC(=O)O)cc2)cc1 [Cpd 135]
- Ki (read-out: DOR binding Ki): 1 nM

SMILES: CCNC(=O)c1ccc(C(=C2CC3CCC(C2)N3CC=C(C)C)c2ccc([N+](=O)[O-])cc2)cc1 [Cpd 136]
- Ki (DOR binding Ki): 0.2 nM

SMILES: CCNC(=O)c1ccc(C(=C2CC3CCC(C2)N3CC=C(C)C)c2ccc(CCC(=O)O)cc2)cc1 [Cpd 137]
- Ki (DOR binding Ki): 1.52 nM

SMILES: CCNC(=O)c1ccc(C(=C2CC3CCC(C2)N3Cc2ccoc2)c2ccc(S(N)(=O)=O)cc2)cc1 [Cpd 138]
- Ki (DOR binding Ki): 15.9 nM

SMILES: CCNC(=O)c1ccc(C(=C2CC3CCC(C2)N3Cc2ccsc2)c2ccc(S(N)(=O)=O)cc2)cc1 [Cpd 139]
- Ki (DOR binding Ki): 0.33 nM

SMILES: CCNC(=O)c1ccc(C(=C2CC3CCC(C2)N3Cc2nccs2)c2ccc(S(N)(=O)=O)cc2)cc1 [Cpd 140]
- Ki (DOR binding Ki): 9.38 nM

SMILES: CCNC(=O)c1ccc(C(=C2CC3CCC(C2)N3Cc2cccs2)c2ccc(S(N)(=O)=O)cc2)cc1 [Cpd 141]
- Ki (DOR binding Ki): 0.05 nM

SMILES: CCNC(=O)c1ccc(C(=C2CC3CCC(C2)N3CC=C(C)C)c2ccc(S(N)(=O)=O)cc2)cc1 [Cpd 142]
- Ki (DOR binding Ki): 1.2 nM

SMILES: CCNC(=O)c1ccc(C(C#N)=C2CC3CCC(C2)N3Cc2ccoc2)cc1 [Cpd 143]
- Ki (DOR binding Ki): 0.3 nM

Like-named read-outs stand apart in the source and are kept apart here.
